# Test results taken from the supplement of paper PMC3334620.
# In all, about 33,000 sequences were measured (“E-score (-0.5 to 0.5)”: median about -0.017, highest 2% from about 0.3 on). This is one part of the list.
# Molecular target: T1, Sut1 (UniProt P53032)
# T1 sequence: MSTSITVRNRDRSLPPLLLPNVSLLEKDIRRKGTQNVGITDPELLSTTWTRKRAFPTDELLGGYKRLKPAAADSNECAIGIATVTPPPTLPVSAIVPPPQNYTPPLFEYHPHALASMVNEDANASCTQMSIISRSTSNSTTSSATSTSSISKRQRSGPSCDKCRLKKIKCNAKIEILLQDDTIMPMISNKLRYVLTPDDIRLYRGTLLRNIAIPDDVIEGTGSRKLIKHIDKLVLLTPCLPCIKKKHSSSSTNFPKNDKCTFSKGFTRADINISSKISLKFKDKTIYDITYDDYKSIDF
# Assay: PBM E-score (8-mer binding enrichment) (E-score (-0.5 to 0.5)); higher = stronger / more preferred TF binding; most listed sequences are background and not binding sites
# Settings: protein concentration: 200 nM; construct: GST-full length
# Experimental: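 Universal 'all 10-mer' protein binding microarrays (Agilent AMADID 015681) probed with GST-tagged S. cerevisiae TFs (full-length or DBD) made by in vitro transcription/translation (PURExpress), about 100-200 nM. Bound TF was detected with fluorescent anti-GST. Each ungapped 8-mer (which stands for itself and its reverse complement) is scored by the PBM enrichment score (E-score), a modified Wilcoxon-Mann-Whitney statistic from -0.5 to +0.5, computed with the Universal PBM Analysis Suite. Scale: above 0.35 generally sequence-specific binding.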
row,Sequence,PBM E-score
1,CGCGTAAG,0.0366
2,AGTACCTA,0.143
3,TATGAATA,0.176
4,CACTTTCA,0.0516
5,GTAAACAC,0.09
6,AGTTAACA,0.209
7,GACCGTCA,-0.173
8,GCATGACC,-0.192
9,AACAGCAT,-0.144
10,CCATACCG,-0.161
11,ATAGGGCA,-0.177
12,TCGGAAAA,0.372
13,CGTGCACA,-0.1
14,AGTTCGAC,-0.0297
15,AATGACCA,0.0457
16,ATGCATTC,0.136
17,GCTCCGCA,0.227
18,GCAACTTA,0.146
19,CCCTCGAA,-0.244
20,CATAGCCG,0.0749
21,ACCACTAC,0.00567
22,GTGCTAAA,0.0439

row,Sequence,PBM E-score
1,CCAGGGCA,-0.317
2,CCCAGGAG,-0.214
3,AGTACTTA,0.0504
4,ATAAGGTC,0.0762
5,ACGGGATA,-0.11
6,AGCCAACG,0.0155
7,CCTCGAGC,-0.13
8,CAGAACAA,0.208
9,GACATATC,0.0485
10,AGCGAACT,-0.0285
11,CCGCGCGG,0.232
12,CGGGTCCA,-0.123
13,AGGGTGCG,-0.249
14,ACAATACA,0.137
15,AGAGAGCA,0.00221
16,CGATACAA,0.112
17,TTAACAAA,0.209
18,ACCAATAC,-0.00928
19,GCGTCGCA,-0.0968
20,CACAAATA,0.13
21,TCCCGCGA,-0.0158
22,CAAAACTC,0.203

row,Sequence,PBM E-score
1,GGCGAACC,-0.106
2,CGCCGTAG,0.0361
3,GAGATATC,0.146
4,ACTTATGC,0.0564
5,CGAATTAC,0.0352
6,GCCCGCTA,-0.241
7,TGATGACA,-0.0345
8,CCCCATTC,-0.161
9,TAATCATA,0.156
10,CGAGTTCC,0.0377
11,GAAACTGC,-0.0799
12,GGAGGTAC,-0.0905
13,ATGCCACA,0.0484
14,AGGAGCGG,-0.353
15,AAGGCCAC,-0.194
16,GCCGGGAC,-0.222
17,GACGCCGA,0.0159
18,CCACCAGC,-0.0754
19,ACGATCAG,-0.0635
20,TGAAAGCA,0.148
21,CTGAGCCA,-0.123
22,AACATCTC,0.142

row,Sequence,PBM E-score
1,GTAACCTA,0.192
2,GCTCCAAC,0.00623
3,AAACTTTG,0.169
4,AACGAAAC,0.15
5,GGGCCCTA,-0.227
6,GGCGTCAC,-0.181
7,CCTAAAAC,-0.00765
8,CTTCCACA,0.097
9,AGGATTAC,0.0222
10,ATCGCCAC,-0.0794
11,TACTCATA,-0.033
12,ATGTTAAG,0.0757
13,GGTCTGGA,-0.16
14,GAAATCCC,-0.0066
15,ACGAGCTA,0.0481
16,CTTGATAC,0.0142
17,GGACACCA,-0.181
18,GAGCACTC,0.0601
19,CAGGCGCC,-0.0838
20,AAGCGCAC,0.00639
